The supplement of paper PMC11369174, “Proteome-scale characterisation of motif-based interactome rewiring by disease mutations” (Molecular Systems Biology, 2024)
Some of the results follow. The data scatter; read single values as rough.

T1: MSN_FERM_1_P26038_1_322
T1 chain: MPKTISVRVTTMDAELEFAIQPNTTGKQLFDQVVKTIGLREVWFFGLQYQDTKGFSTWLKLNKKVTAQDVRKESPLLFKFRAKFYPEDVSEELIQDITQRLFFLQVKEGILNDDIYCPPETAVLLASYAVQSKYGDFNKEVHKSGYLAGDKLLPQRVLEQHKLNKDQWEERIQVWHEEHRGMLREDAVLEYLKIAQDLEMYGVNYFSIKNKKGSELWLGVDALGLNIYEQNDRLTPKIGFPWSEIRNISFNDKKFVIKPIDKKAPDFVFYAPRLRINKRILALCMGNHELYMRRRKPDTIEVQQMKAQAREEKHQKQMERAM

T2: RDX_FERM_1_P35241_5_295
T2 chain: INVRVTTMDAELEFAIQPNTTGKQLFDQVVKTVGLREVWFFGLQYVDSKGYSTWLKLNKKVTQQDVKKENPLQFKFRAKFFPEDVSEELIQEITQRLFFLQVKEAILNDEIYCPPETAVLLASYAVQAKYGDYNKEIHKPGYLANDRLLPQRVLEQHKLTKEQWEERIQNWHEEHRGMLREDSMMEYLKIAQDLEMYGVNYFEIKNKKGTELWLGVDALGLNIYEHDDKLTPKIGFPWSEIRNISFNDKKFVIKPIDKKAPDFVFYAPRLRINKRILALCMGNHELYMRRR

T3: SPOP_MATH__O43791_19_176
T3 chain: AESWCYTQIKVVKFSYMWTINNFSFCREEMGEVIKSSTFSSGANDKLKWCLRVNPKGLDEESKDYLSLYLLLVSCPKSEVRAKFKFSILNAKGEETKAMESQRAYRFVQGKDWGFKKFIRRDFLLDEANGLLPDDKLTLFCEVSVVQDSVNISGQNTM

T4: GEF_Sec7__Q9Y6D5_639_829
T4 chain: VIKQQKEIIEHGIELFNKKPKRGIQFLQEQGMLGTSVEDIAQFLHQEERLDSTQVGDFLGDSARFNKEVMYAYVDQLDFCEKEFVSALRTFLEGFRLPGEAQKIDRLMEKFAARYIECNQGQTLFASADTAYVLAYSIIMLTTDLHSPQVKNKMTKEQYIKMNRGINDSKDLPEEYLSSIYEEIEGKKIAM

T5: GGA3_VHS__Q9NZ52_1_166
T5 chain: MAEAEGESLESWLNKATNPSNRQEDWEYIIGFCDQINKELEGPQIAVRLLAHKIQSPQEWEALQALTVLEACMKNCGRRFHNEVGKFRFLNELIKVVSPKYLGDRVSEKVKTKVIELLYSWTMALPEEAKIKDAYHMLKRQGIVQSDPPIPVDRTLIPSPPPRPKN

T6: PEX14_Pex14__O75381_16_84
T6 chain: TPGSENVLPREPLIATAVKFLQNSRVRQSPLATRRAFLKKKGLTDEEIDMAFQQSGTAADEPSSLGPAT

T7: GGA1_VHS__Q9UJY5_1_157
T7 chain: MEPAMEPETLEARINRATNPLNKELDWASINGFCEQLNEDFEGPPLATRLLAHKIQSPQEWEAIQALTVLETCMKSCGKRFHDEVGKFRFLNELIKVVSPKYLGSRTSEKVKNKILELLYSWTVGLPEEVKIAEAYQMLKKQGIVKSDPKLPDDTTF


molecular target: GABARAPL2_ATG8__P60520_2_115; assay: mutation enrichment score (mutant vs wild-type peptide binding to bait); baits are purified protein domains named by gene / domain / UniProt id / residues; peptides come from disordered regions of human proteins; higher = mutation enhances binding relative to wild type; conditions: number of wild-type / mutant comparisons summed (bounds the score): 6; paper call: no_effect; wild-type window: …
Sequence (chain, as listed by the source): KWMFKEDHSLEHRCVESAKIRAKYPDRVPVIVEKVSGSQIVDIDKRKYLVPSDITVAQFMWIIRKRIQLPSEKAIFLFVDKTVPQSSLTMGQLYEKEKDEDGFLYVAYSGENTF

| Binder | mutation enrichment score |
| --- | --- |
| VMILTYKYLQKPMYEVQWKVDEEINGNNYVYIDPTQLPYDH [V560D V560D] | 0 |
| VMILTYKYLQKPMYEVQWKVGEEINGNNYVYIDPTQLPYDH [V560G V560G] | 0 |
| YEVQWKVVEEINGNNYVYIDLTQLPYDHKWEFPRNRLSFGK [P573L P573L] | 0 |
| EGLFEYDLLPFLSSTISPYYCQSLFRTVLDSGISEVRSDRD [R49C R49C] | -3 |
| KVQRETARKSQWKKWEVVAEQAWKGGTESEMFNKLESIATS [R1047Q R1047Q] | 2.1 |
| APVPIAAHASVAGHLSTSTTISSSGAQNSDSTKKTLVTLIA [V71I V71I] | -4 |
| PTAEEEALIEFHRSYRELFELFCNNTTIHGAIRLVCSQHNR [F61L F61L] | -2 |
| MAFYSCCWVLLALTWHTSAYPPDQRAQKKGDII [L13P L13P] | 3 |
| YDLLPFLSSTISPYYRQSLFCTVLDSGISEVRSDRDKFVIF [R54C R54C] | -3 |
| IIVMILTYKYLQKPMYEVQWEVVEEINGNNYVYIDPTQLPY [K558E K558E] | 1 |
| IGVKKHLAPFLPNHPVISLKWNEDACPVGTVSAAPWGSSSI [R790W R790W] | -2 |

molecular target: GABARAPL1_ATG8__Q9H0R8_2_115; assay: as above; conditions: number of wild-type / mutant comparisons summed (bounds the score): 12; paper call: no_effect; wild-type window: …

| Binder | mutation enrichment score |
| --- | --- |
| PSGHPDQTGTNQHFVMVEVHHPDSEPDVNEVRALPQTRTAS [R728H R728H] | 5 |
| IYSFGLIIWEMARRCITGGIMEEYQLPYYNMVPSDPSYEDM [V450M V450M] | -2 |
| GEPKDGGGTEITNYIVEKRELGTTAWQLVNSSVKRTQIKVT [S29710L S29710L] | -5.4 |
| ALILDNKYTEHSTVGLAQQWVQLDQLGMRMQHNLEQQIQAR [D2295V D2295V] | 4 |

molecular target: GABARAPL2_ATG8__P60520_2_115; assay: as above; conditions: number of wild-type / mutant comparisons summed (bounds the score): 12; paper call: enhanced; wild-type window: …

| Binder | mutation enrichment score |
| --- | --- |
| PSGHPDQTGTNQHFVMVEVHHPDSEPDVNEVRALPQTRTAS [R728H R728H] | 9 |

molecular target: GABARAP_ATG8__O95166_2_115; assay: as above; conditions: number of wild-type / mutant comparisons summed (bounds the score): 12; paper call: no_effect; wild-type window: …
Sequence (chain, as listed by the source): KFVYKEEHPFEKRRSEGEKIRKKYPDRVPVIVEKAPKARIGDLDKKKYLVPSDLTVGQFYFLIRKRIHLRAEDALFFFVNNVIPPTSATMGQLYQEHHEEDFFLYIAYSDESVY

| Binder | mutation enrichment score |
| --- | --- |
| PSGHPDQTGTNQHFVMVEVHHPDSEPDVNEVRALPQTRTAS [R728H R728H] | 2.7 |
| GEPKDGGGTEITNYIVEKRELGTTAWQLVNSSVKRTQIKVT [S29710L S29710L] | -4 |

molecular target: GABARAPL1_ATG8__Q9H0R8_2_115; assay: as above; conditions: number of wild-type / mutant comparisons summed (bounds the score): 18; paper call: no_effect; wild-type window: …

| Binder | mutation enrichment score |
| --- | --- |
| ISFDTEEERQQWEDDQRQADQDWYMMDEGYDEFHNPLAYSS [R324Q R324Q] | 1 |
| SASSMTEMKFASMSAQSMSSTQESFVEMSSSSFMGISNMTQ [M34218T M34218T] | -5 |
| GVEVKKEVGVSITGTTVREEHFEVLHGREAKVTETARVPAP [R915H R915H] | -5.7 |

Molecular target: T1, MSN_FERM_1_P26038_1_322
Assay: as above
Conditions: number of wild-type / mutant comparisons summed (bounds the score): 6; paper call: enhanced; wild-type window: …

| Binder | mutation enrichment score |
| --- | --- |
| EGLFEYDLLPFLSSTISPYYCQSLFRTVLDSGISEVRSDRD [R49C R49C] | 6 |

Molecular target: T2, RDX_FERM_1_P35241_5_295
Assay: as above
Conditions: number of wild-type / mutant comparisons summed (bounds the score): 6; paper call: no_effect; wild-type window: …

| Binder | mutation enrichment score |
| --- | --- |
| EGLFEYDLLPFLSSTISPYYCQSLFRTVLDSGISEVRSDRD [R49C R49C] | 3 |

Molecular target: T3, SPOP_MATH__O43791_19_176
Assay: as above
Conditions: number of wild-type / mutant comparisons summed (bounds the score): 18; paper call: no_effect; wild-type window: …

| Binder | mutation enrichment score |
| --- | --- |
| APVPIAAHASVAGHLSTSTTISSSGAQNSDSTKKTLVTLIA [V71I V71I] | -3 |

molecular target: USP7_MATH-TRAF__Q93009_53_206; assay: as above; conditions: number of wild-type / mutant comparisons summed (bounds the score): 15; paper call: no_effect; wild-type window: …
Sequence (chain, as listed by the source): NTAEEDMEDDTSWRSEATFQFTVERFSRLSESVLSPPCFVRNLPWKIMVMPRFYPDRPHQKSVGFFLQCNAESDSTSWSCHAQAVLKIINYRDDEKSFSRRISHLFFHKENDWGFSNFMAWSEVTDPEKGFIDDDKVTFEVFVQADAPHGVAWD

| Binder | mutation enrichment score |
| --- | --- |
| APVPIAAHASVAGHLSTSTTISSSGAQNSDSTKKTLVTLIA [V71I V71I] | -1.4 |
| SASSMTEMKFASMSAQSMSSTQESFVEMSSSSFMGISNMTQ [M34218T M34218T] | 1.2 |

Molecular target: T4, GEF_Sec7__Q9Y6D5_639_829
Assay: as above
Conditions: number of wild-type / mutant comparisons summed (bounds the score): 6; paper call: enhanced; wild-type window: …

| Binder | mutation enrichment score |
| --- | --- |
| LDVAKPDLTAALKEIRTQYEVMASSNMHEAEEWYRSKFADL [A244V A244V] | 6 |

molecular target: GABARAPL2_ATG8__P60520_2_115; assay: as above; conditions: number of wild-type / mutant comparisons summed (bounds the score): 12; paper call: no_effect; wild-type window: …

| Binder | mutation enrichment score |
| --- | --- |
| GEPKDGGGTEITNYIVEKRELGTTAWQLVNSSVKRTQIKVT [S29710L S29710L] | -4.4 |
| GVEVKKEVGVSITGTTVREEHFEVLHGREAKVTETARVPAP [R915H R915H] | -5 |

Molecular target: T5, GGA3_VHS__Q9NZ52_1_166
Assay: as above
Conditions: number of wild-type / mutant comparisons summed (bounds the score): 12; paper call: no_effect; wild-type window: …

| Binder | mutation enrichment score |
| --- | --- |
| GEPKDGGGTEITNYIVEKRELGTTAWQLVNSSVKRTQIKVT [S29710L S29710L] | -2 |

Molecular target: T3, SPOP_MATH__O43791_19_176
Assay: as above
Conditions: number of wild-type / mutant comparisons summed (bounds the score): 6; paper call: no_effect; wild-type window: …

| Binder | mutation enrichment score |
| --- | --- |
| GEPKDGGGTEITNYIVEKRELGTTAWQLVNSSVKRTQIKVT [S29710L S29710L] | -4 |

molecular target: USP7_MATH-TRAF__Q93009_53_206; assay: as above; conditions: number of wild-type / mutant comparisons summed (bounds the score): 10; paper call: no_effect; wild-type window: …

| Binder | mutation enrichment score |
| --- | --- |
| GEPKDGGGTEITNYIVEKRELGTTAWQLVNSSVKRTQIKVT [S29710L S29710L] | -3 |

molecular target: GABARAPL2_ATG8__P60520_2_115; assay: as above; conditions: number of wild-type / mutant comparisons summed (bounds the score): 18; paper call: enhanced; wild-type window: …

| Binder | mutation enrichment score |
| --- | --- |
| ALILDNKYTEHSTVGLAQQWVQLDQLGMRMQHNLEQQIQAR [D2295V D2295V] | 8 |

molecular target: MAP1LC3A_ATG8__Q9H492_2_121; assay: as above; conditions: number of wild-type / mutant comparisons summed (bounds the score): 12; paper call: enhanced; wild-type window: …

| Binder | mutation enrichment score |
| --- | --- |
| ALILDNKYTEHSTVGLAQQWVQLDQLGMRMQHNLEQQIQAR [D2295V D2295V] | 12 |

molecular target: MAP1LC3B_ATG8__Q9GZQ8_2_119; assay: as above; conditions: number of wild-type / mutant comparisons summed (bounds the score): 12; paper call: no_effect; wild-type window: …

| Binder | mutation enrichment score |
| --- | --- |
| ALILDNKYTEHSTVGLAQQWVQLDQLGMRMQHNLEQQIQAR [D2295V D2295V] | 3 |

Molecular target: T6, PEX14_Pex14__O75381_16_84
Assay: as above
Conditions: number of wild-type / mutant comparisons summed (bounds the score): 12; paper call: diminished; wild-type window: …

| Binder | mutation enrichment score |
| --- | --- |
| ALILDNKYTEHSTVGLAQQWVQLDQLGMRMQHNLEQQIQAR [D2295V D2295V] | -7 |

molecular target: GABARAPL2_ATG8__P60520_2_115; assay: as above; conditions: number of wild-type / mutant comparisons summed (bounds the score): 6; paper call: enhanced; wild-type window: …

| Binder | mutation enrichment score |
| --- | --- |
| MAKAAASSSLEDLDLSGEEVWRLTSAFQ [S8W S8W] | 6 |

molecular target: MAP1LC3A_ATG8__Q9H492_2_121; assay: as above; conditions: number of wild-type / mutant comparisons summed (bounds the score): 18; paper call: diminished; wild-type window: …

| Binder | mutation enrichment score |
| --- | --- |
| GVEVKKEVGVSITGTTVREEHFEVLHGREAKVTETARVPAP [R915H R915H] | -6.7 |

molecular target: MAP1LC3B_ATG8__Q9GZQ8_2_119; assay: as above; conditions: number of wild-type / mutant comparisons summed (bounds the score): 18; paper call: no_effect; wild-type window: …

| Binder | mutation enrichment score |
| --- | --- |
| GVEVKKEVGVSITGTTVREEHFEVLHGREAKVTETARVPAP [R915H R915H] | -6.6 |

Molecular target: T7, GGA1_VHS__Q9UJY5_1_157
Assay: as above
Conditions: number of wild-type / mutant comparisons summed (bounds the score): 5; paper call: no_effect; wild-type window: …

| Binder | mutation enrichment score |
| --- | --- |
| GMRIAWDDEETRDGFRLSSQKAASSFGDDRLLIEKFIDNPR [E248K E248K] | -2 |

Molecular target: T4, GEF_Sec7__Q9Y6D5_639_829
Assay: as above
Conditions: number of wild-type / mutant comparisons summed (bounds the score): 6; paper call: no_effect; wild-type window: …

| Binder | mutation enrichment score |
| --- | --- |
| VPGPGLVKDSPLLLQQISAMKLHISQLQHENSILKGAQMKA [R1101K R1101K] | 6 |
